# Among all 310,000 compounds or so, about 2,200 (0.71%) showed an effect of 50% or more. Effects have a minus sign here. The list shows a part of the results.
# Biological target: human ether-à-go-go-related gene (hERG) potassium channel (human, UniProt Q12809)
# Assay: primary screen, population patch clamp on CHO cells stably expressing hERG
# Chain of human ether-à-go-go-related gene (hERG) potassium channel (Q12809 whole entry, looked up): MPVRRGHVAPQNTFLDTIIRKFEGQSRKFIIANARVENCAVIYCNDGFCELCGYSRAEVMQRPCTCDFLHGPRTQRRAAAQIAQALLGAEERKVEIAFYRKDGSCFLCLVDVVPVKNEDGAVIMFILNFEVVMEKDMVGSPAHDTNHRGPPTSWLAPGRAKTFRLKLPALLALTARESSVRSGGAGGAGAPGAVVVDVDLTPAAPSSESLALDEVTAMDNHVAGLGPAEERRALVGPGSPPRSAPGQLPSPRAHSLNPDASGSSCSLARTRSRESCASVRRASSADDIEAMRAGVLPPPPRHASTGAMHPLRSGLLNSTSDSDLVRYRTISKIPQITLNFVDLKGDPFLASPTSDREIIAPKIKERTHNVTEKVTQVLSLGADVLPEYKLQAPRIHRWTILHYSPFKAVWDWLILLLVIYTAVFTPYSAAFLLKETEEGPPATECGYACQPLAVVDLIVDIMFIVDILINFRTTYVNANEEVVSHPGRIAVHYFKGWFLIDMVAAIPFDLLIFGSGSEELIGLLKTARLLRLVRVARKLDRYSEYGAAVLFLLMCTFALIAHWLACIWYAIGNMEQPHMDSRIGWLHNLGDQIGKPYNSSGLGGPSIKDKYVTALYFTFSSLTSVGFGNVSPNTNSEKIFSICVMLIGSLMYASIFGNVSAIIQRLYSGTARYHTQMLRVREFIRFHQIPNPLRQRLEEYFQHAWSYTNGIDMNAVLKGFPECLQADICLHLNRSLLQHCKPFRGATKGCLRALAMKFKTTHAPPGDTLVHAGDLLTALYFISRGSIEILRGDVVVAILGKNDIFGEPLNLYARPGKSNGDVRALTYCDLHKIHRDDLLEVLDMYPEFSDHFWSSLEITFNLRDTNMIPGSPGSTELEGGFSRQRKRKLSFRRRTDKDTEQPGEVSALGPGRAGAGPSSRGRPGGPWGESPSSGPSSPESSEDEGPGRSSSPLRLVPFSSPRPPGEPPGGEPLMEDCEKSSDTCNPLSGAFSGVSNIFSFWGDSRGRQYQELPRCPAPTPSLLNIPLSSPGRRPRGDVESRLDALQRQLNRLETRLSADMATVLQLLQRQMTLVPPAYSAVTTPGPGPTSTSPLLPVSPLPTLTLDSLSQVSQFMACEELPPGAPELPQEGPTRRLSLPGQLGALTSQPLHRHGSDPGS
row,Structure (SMILES),"hERG current change (%, negative = inhibition) at 1uM"
1,COc1ccc2[nH]c(=O)c(CN(C(=O)C3CCCO3)c3ccc(C)c(C)c3)cc2c1 (stereo not drawn),-0.124%
2,CSc1ccc(Cl)c(C(=O)NCCOc2ccccc2)c1,15%
3,COc1cccc(C(=O)NCc2n[nH]c(=S)n2-c2cccc(C)c2)c1,16.4%
4,CCOc1ccc(C2C([N+](=O)[O-])=C(C)N(C)C(=O)N2C)cc1OC (stereo not drawn),5.29%
5,COc1ccc2c(c1OC)C(=O)OC2N1C(=O)CC[C@H]1C(=O)Nc1ccc2c(c1)OCO2 (stereo partly drawn),8.36%
6,O=C(Nc1ccc(Cl)cc1)c1nc[nH]c1C(=O)NCc1ccccc1,10.2%
7,Cc1cc(C(=O)N(CCC#N)Cc2cccs2)no1,13.7%
8,CCCCc1c(C)c2ccc(OC)c(/C(C)=N\O)c2oc1=O,10.7%
9,COc1ccc(/C=N/Nc2ncc(-c3ccccc3)cn2)c(OC)c1,20.3%
10,CCOC(=O)N1CCC(NC(=O)CN(c2ccc(C(C)C)cc2)S(=O)(=O)c2c(C)nn(C)c2C)CC1,10.4%
11,COc1ccc(NC(=O)CC2C(=O)N(C)C(=S)N2Cc2ccco2)cc1 (stereo not drawn),8.81%
12,COC(=O)C1=C(C)NC(=O)C1(NS(=O)(=O)c1ccc(NC(C)=O)cc1)C(F)(F)F (stereo not drawn),8.28%
13,Nc1nonc1-c1nc2ccccc2n1CCC(=O)O,8.16%
14,COC(=O)c1ccc(NC(=O)C2C3C=CC(C3)C2C(=O)O)cc1 (stereo not drawn),4.75%
15,CCc1ccc(NC(=S)NC(=O)CC(C)C)cc1,16.8%
16,CC1CCCC(NC(=O)CNCc2ccccc2F)C1C.O=C(O)C(=O)O (stereo not drawn),1.63%
17,Cc1oc2c(CN3CCCC(C)C3)c(O)ccc2c(=O)c1-c1ccccc1 (stereo not drawn),3.89%
18,Cc1cc(C(=O)N/N=C/c2cccc([N+](=O)[O-])c2O)n[nH]1,1.97%
19,Cc1cccc(C(=O)NCC(=O)N2CCN(c3ccc(Cl)cc3)CC2)c1,4.04%
20,C=CCNC(=O)C1CCN(c2cc(C)nc(-c3ccccc3)n2)CC1,-12.2%
21,CC(C)c1ccc(NC(=O)C2CCN(C(=O)[C@@H]3Cc4ccccc4CN3)CC2)cc1,-40.1%
22,Cc1c(Cl)cccc1NC(=O)C1CCCCC1,9.6%
23,O=C(CCc1n[nH]c(=O)[nH]c1=O)N1CCOCC1,9.76%

row,Structure (SMILES),"hERG current change (%, negative = inhibition) at 1uM"
1,COC(=O)c1ccc(NC(=O)c2ccc(F)cc2)o1,9.39%
2,CC(C)C[C@H](NC(=O)[C@@H]1O[C@H]1C(=O)O)C(=O)NCCCCN=C(N)N,9.26%
3,COC(=O)c1[nH]c2ccccc2c1NC(=O)C(C)N1CCOCC1 (stereo not drawn),9.91%
4,Cc1ccc(N2CC(C(=O)N3CCC(C(=O)Nc4ccc(Br)cc4)CC3)CC2=O)cc1 (stereo not drawn),-3.6%
5,COc1cc(C(=O)OCC(=O)c2c(N)n(C)c(=O)n(C)c2=O)ccc1OCCC(C)C,14.4%
6,O=C1c2cccnc2C(=O)N1Cc1ccc(S(=O)(=O)N2CCN(c3ccccc3)CC2)cc1,14.8%
7,Br.CCCn1c(=N)n(CC(=O)c2ccc(Cl)c(Cl)c2)c2ccccc21,-17.7%
8,Cc1ccc(NC(=O)Nc2cccc([N+](=O)[O-])c2)cc1F,7.26%
9,Nc1nnnn1/N=C\c1ccc(Cl)c([N+](=O)[O-])c1,9.04%
10,COc1ccc(/C=C/C(=O)Nc2nc(C)c(C(=O)N(C)C)s2)cc1OC,8.77%
11,O=C(Cn1c(=O)c2cccn2c2cccnc21)N1CCN(c2ccc(Cl)cc2)CC1,-7.62%
12,COc1ccc2nc3ccccc3nc2c1NC(=O)c1ccc(Cl)cc1Cl,17.5%
13,Cc1ccc(NC(=O)c2cnc(N3CCN(c4ccccn4)CC3)c3ccccc23)c(Br)c1,18.2%
14,O=C(NNc1cc(Cl)ccc1Cl)c1cccs1,23.1%
15,CCc1cc2c(SCC(=O)Nc3ncc(Cl)c(C)c3Cl)ncnc2s1,6.51%
16,C=CCN(C(=O)c1csnn1)C(C(=O)NC1CCCCC1)c1ccccc1 (stereo not drawn),7.13%
17,COc1cccc(OCC(O)CN2CC(C)CC(C)C2)c1.Cl (stereo not drawn),-1.59%
18,COc1ccc(S(=O)(=O)Nc2cc3c(C(C)=O)c(C)oc3c3ccccc23)cc1,0.727%
19,Cc1ccc(NC(=O)Cn2cc(C(F)(F)F)cc(Cl)c2=O)cc1S(=O)(=O)N1CCCCC1,-20.6%
20,O=C(COC(=O)c1ccc([N+](=O)[O-])s1)NC(c1ccccc1)c1ccccc1,12.4%
21,Cc1nn(CCO)c2ncc(C(=O)c3cc(F)ccc3O)cc12,17.3%
22,CC(C)CN(CC(C)C)C(=O)CN1C(=O)NC2(CCc3ccccc3C2)C1=O (stereo not drawn),10.4%
23,CCCc1nn(CCc2ccccn2)c(N)c1CC,5.78%

row,Structure (SMILES),"hERG current change (%, negative = inhibition) at 1uM"
1,COCCCNC(=O)C1Cc2cc(S(=O)(=O)N3CCCC3)ccc2N1C(C)=O (stereo not drawn),8.15%
2,CCC(C)n1c(SC(C)C#N)nc2ccccc2c1=O (stereo not drawn),8.97%
3,CCCCC(CC)CNC(=O)c1ccc2c(c1)OCO2 (stereo not drawn),3.31%
4,Cc1cccc(N2CCN(C(=O)n3ccnc3)CC2)c1C,-3.02%
5,COc1cc(Br)c(C(C)NC(=O)c2ccccc2)cc1OC (stereo not drawn),6.56%
6,O=c1cc(NCc2ccccc2)[nH]c(=O)[nH]1,13.8%
7,CN(Cc1cnccn1)C(=O)CC1C(=O)NCCN1Cc1ccc(F)cc1Cl (stereo not drawn),14.7%
8,COc1ccc2[nH]c3nc(SCC(=O)NNC(=O)c4ccc(OC)c(OC)c4)nnc3c2c1,10.3%
9,OCC[C@@H]1C[C@@H](O)[C@H](O)[C@]2(Cc3ccccc3CO2)O1,15.3%
10,O=C(CN1CCN(c2ccc(F)cc2)CC1)Nc1cc(C(F)(F)F)ccc1Cl,0.892%
11,COc1ccc(CNC(=O)C2CCCN(S(=O)(=O)c3c(C)nn(C)c3C)C2)cc1 (stereo not drawn),15.5%
12,CCn1cnc2cc(NCc3ccc(N(C)C)cc3)ccc21,17.2%
13,COC(=O)C1(S(=O)(=O)c2ccc(C)cc2)CCOCC1,-2.88%
14,Cc1onc(-c2ccccc2Cl)c1C(=O)c1ccccc1,5.83%
15,Oc1ccc(-c2n[nH]c(=S)n2Cc2ccco2)cc1,2.33%
16,O=c1oc2c(O)c(O)cc3c(=O)oc4c(O)c(O)cc1c4c23,11.6%
17,CC(C)CC(=O)NC(Nc1ccc([N+](=O)[O-])cc1)C(Cl)(Cl)Cl (stereo not drawn),-1.21%
18,O=C(Cc1cccs1)N1CCN(C(=O)C2CCCO2)CC1 (stereo not drawn),11.5%
19,CC(Sc1nc(N)cc(=O)[nH]1)C(=O)Nc1cccc(Cl)c1 (stereo not drawn),9.37%
20,CC(=O)N1CCc2cc(S(=O)(=O)N3CC(C)CC(C)C3)ccc21 (stereo not drawn),15.8%
21,Cc1cc(Cl)ccc1OCC(=O)N1CC(C)CC(C)C1 (stereo not drawn),6.83%
22,COc1cc2c(c(OC)c1OC)-c1ccc(OC)c(=O)cc1C(NC(C)=O)CC2 (stereo not drawn),5.83%
23,COc1ccc(OC)c(NC(=O)CCCN2C(=O)C3C4C=CC(C4)C3C2=O)c1 (stereo not drawn),6.71%

row,Structure (SMILES),"hERG current change (%, negative = inhibition) at 1uM"
1,O=C(C1CCCCC1)N1CCCn2c1nc1ccccc12,10.8%
2,COc1ccc(Nc2c(C)cccc2C)cc1,11.9%
3,CCOC(CC(=O)NNC(=O)c1c(-c2ccccc2Cl)noc1C)OCC,16.9%
4,CCOC(=O)c1nn(-c2ccccc2)c2nc(Nc3ccccc3)cc(=O)n12,5.22%
5,CC(=O)N/C(=C\c1ccccc1)C(=O)NCc1ccc2c(c1)OCO2,6.11%
6,CCN(CC)CCNC(=O)c1c(O)c2c([nH]c1=O)CCCC2,8.37%
7,COc1ccc(C)cc1NC(=O)Cn1c(=O)oc2ccccc21,16.1%
8,Cc1ncc(C[n+]2ccc(C)c(C)c2)c(N)n1.[Cl-],11.8%
9,CCn1c(Cc2ccc(OC)cc2)nnc1SCC(=O)N1CCN(c2ccccc2)CC1,1.4%
10,COc1cccc(C2CCCN2Cc2nc(-c3sccc3C)oc2C)c1 (stereo not drawn),13.3%
11,COc1ccc(CC(=O)NCc2n[nH]c(=S)n2-c2ccccc2OC)cc1,10.5%
12,CCOC(=S)SCC(=O)Nc1nccs1,13%
13,CC1CC(C)CN(C(=O)c2ccc(S(=O)(=O)N3CCCC3)cc2)C1 (stereo not drawn),12.1%
14,COc1cc(OC)cc(C(=O)Nc2nc(CC(=O)NCCc3ccccc3)cs2)c1,-8.22%
15,O=C(O)CN1CCCCCC1=O,18.3%
16,COc1ccc(CCN(C)C(=O)C2CCN(Cc3cccc(OC)c3OC)CC2)cc1OC.O=C(O)C(=O)O,0.728%
17,CCOc1ccc(NC(=O)CSc2nc3c([nH]c4ccccc43)c(=O)n2C)cc1,14.5%
18,COc1cccc(C(=O)c2sc(NC(C)C)nc2N)c1,5.02%
19,Cc1ccc(NC(CC(=O)c2ccccc2)c2ccc(F)cc2)cc1 (stereo not drawn),-2.52%
20,COc1ccc(NC2CCCN(C(=O)COc3ccc(Cl)cc3C)C2)cc1OC (stereo not drawn),6.12%
21,Cn1c(=O)c(=O)n(C)c2cc(S(=O)(=O)CCC(=O)N3CCCCC3)ccc21,14.8%
